Experimental data as given in PubChem BioAssay AID1345082 (National Center for Advancing Translational Sciences (NCATS), 2018).
Out of some 94,000 compounds screened, about 4,000 (4.3%) were called active. This list was built around the results that the source calls inconclusive (neither active nor inactive); the mix of calls is not that of the screen. Calls follow the shape of the dose curve; as a rule, active = well fitted inhibition curve with a large enough effect; inconclusive = small, poorly fitted or top-dose-only effect; inactive = no such curve, though single readings can be large or run the other way. Potencies beside an inconclusive call are fits to weak or partial responses and may not hold up.

Assay: Cytotoxic Profiling in NIH 3T3 Cell Line of Diverse Libraries Using Quantitative High-Throughput Screening; also: nearly all actives have a fitted effect of over 55% in size
Settings: NIH 3T3 viability, CellTiter-Glo ATP luminescence, 48-72 h; series mostly up to 96.7 µM
Summary of the method: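 NIH 3T3 cells at 400 cells/well received 23 nL of compound by pintool and were incubated 48 or 72 h at 37 °C. Viability was read as ATP-coupled CellTiter-Glo luminescence.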
Potency is read from the fitted curve at half-maximal effect; tags tell the direction and shape of the fitted curve.

SMILES	Potency
CC1CCc2nn3ccn(CC(=O)NCc4ccccc4)c(=O)c3c2C1 (stereo not drawn)	inactive
CC(C)N1CC(C(=O)NCCc2ccc(Cl)cc2)NC1=O (stereo not drawn)	inactive
COC(=O)CN1CCOC(c2ccc3cc(OC)ccc3c2)C1 (stereo not drawn)	inconclusive: 50.1 µM [inhibitor, partial curve, poor fit]
CCCc1nnc(NC(=O)C2c3ccccc3C(=O)N(CCOC)C23CCCCC3)s1 (stereo not drawn)	inconclusive: 70.8 µM [inhibitor, single point]
O=C(c1ccccc1F)N1CCn2c(nnc2C2CC2)C1	inactive
CC1(C)[C@H](Cc2cc(CCO)on2)C[C@@H]1NCc1ccncc1	inconclusive: 50.1 µM [inhibitor, partial curve, poor fit]
O=C(Nc1ccc2c(c1)OCCO2)N1CCC2(CC1)CC(Cc1nc(-c3cnccn3)no1)CCO2 (stereo not drawn)	inactive
O=C(CCSCc1ccccc1)N1C[C@@H](CN2CCOCC2)[C@@H](CO)C1	inconclusive: 56.2 µM [inhibitor, partial curve, poor fit]
CCCCN(C)C(=O)c1cccc2c1CCN2C(=O)Nc1ccc(OC)cc1	inactive
O=C(NCC1CC1)c1cn2cc(-c3ccccc3)sc2n1	inconclusive: 89.1 µM [inhibitor, partial curve]
CC(=O)N1CCN(Cc2nnc(C(=O)N3CCC[C@@H]3c3cccc(F)c3)n2-c2ccccc2)CC1	inconclusive: 44.7 µM [inhibitor, partial curve, poor fit]
Cc1ccc(-n2nc(C)c([C@@H]3C=C[C@@H](NC(=O)COCC(=O)O)C3)c2C)cc1Cl	inactive
Cc1ccc(C(=O)N2CCC(c3n[nH]c(=O)n3Cc3ccc(F)cc3)CC2)cc1F	inconclusive: 12.6 µM [inhibitor, full curve, poor fit]
O=C1CCN(S(=O)(=O)c2ccccc2)CCCN(C(=O)CN2CCCCCC2)CCN1	inactive
O=c1[nH]c(C2CCCN(Cc3ccccn3)C2)nn1-c1ccccc1 (stereo not drawn)	inconclusive: 8.91 µM [inhibitor, full curve, poor fit]
COc1ccc(-c2noc([C@@H]3C[C@@H](O)CN3C3CCCCC3)n2)cc1	inconclusive: 112 µM [inhibitor, partial curve]
Cc1ccc(N2Cc3c(ncnc3N3CCC(O)CC3)CN(C)C2=O)cc1	inactive
CCCCn1c(=O)c(C(=O)N2CCN(C(=O)c3ccccc3OC)CC2)nc2cccnc21	inactive
Cc1ccc(C(=O)N2CCC(OC3CCN(Cc4ccccc4)CC3)CC2)cc1	inactive
Cc1ccccc1C(=O)N1CCCN(c2cc(-c3ccc(Cl)cc3)[nH]n2)CC1	inconclusive: 50.1 µM [inhibitor, partial curve, poor fit]
O=C(NCc1ccccn1)c1csc(N2CCN(c3ccccc3)CC2)n1	inconclusive: 35.5 µM [inhibitor, partial curve]
CC1(CNc2ccccc2)COc2ccc(C(=O)NCCc3ccccc3)cc2N1 (stereo not drawn)	active: 28.2 µM
O=C(c1cc(C2CC2)nc2onc(C3CCNC3)c12)N1CCCCC1 (stereo not drawn)	inactive

SMILES	Potency
CCOCC1(C)COc2ccc(C(=O)Nc3cccc(Cl)c3)cc2N1 (stereo not drawn)	active: 39.8 µM
CC1=C[C@@H](CNC(=O)N2CCOCC2)[C@H](C(C)C)C[C@H]1Cc1nc2ccccc2n1C	active: 63.1 µM
CCOc1cccc(CN2CC[C@@](C)(O)[C@H](N3CCCC3)C2)c1	inactive
COc1cc(NC(=O)Cn2c(N(C)Cc3ccccc3)nc(C)cc2=O)cc(OC)c1	inconclusive: 56.2 µM [inhibitor, partial curve, poor fit]
Cc1cc(C(=O)NCC(C)C)c2c(C3CCNC3)noc2n1 (stereo not drawn)	inactive
O=C1NCCCCCCN(Cc2ccc3c(c2)CCO3)[C@H]2CCC[C@@H]12	inconclusive: 70.8 µM [inhibitor, single point]
CC(=O)N[C@H]1CO[C@H]2[C@@H]1OC[C@@H]2Nc1nccc(-c2cccc(F)c2)n1	inactive
COc1ccc(C(=O)N2CCc3nc(-c4ccccc4)nc(-c4ccc(OC)cc4)c3C2)cc1	inactive
COc1cc(F)ccc1-c1cc(-c2c(C)noc2C)cc2c1C(=O)N(C)C2=O	inconclusive: 50.1 µM [inhibitor, partial curve, poor fit]
COc1ccc(F)cc1-c1cccc(C(=O)NCCNC(=O)Nc2ccccc2)c1	active: 35.5 µM
Cc1ccccc1S(=O)(=O)N1CCCCCCNC(=O)[C@@H]2CCC[C@@H]21	inconclusive: 50.1 µM [inhibitor, partial curve, poor fit]
Fc1ccc(CN2Cc3[nH]cnc3C[C@H]2c2nc(-c3ccc(Cl)cc3)no2)cc1	active: 50.1 µM
c1coc(CN2CCc3c(sc4ncnc(N5CCOCC5)c34)C2)c1	inconclusive: 50.1 µM [inhibitor, partial curve, poor fit]
Cc1nnc2ccc(N3CCCC(NC(=O)Cc4ccc(F)cc4)C3)nn12 (stereo not drawn)	inactive
COc1cc(OC)c(OC)cc1CN1C[C@@H]2C(=O)N(C)C(=O)[C@@H]2C1	inactive
O=C(c1ccccc1Cl)N1CCc2nc(-c3ccc(Cl)cc3)nc(-c3ccccc3)c2C1	inconclusive: 28.2 µM [inhibitor, partial curve]
COc1ccccc1C(=O)NC1CCCN(c2ccc3nnc(C)n3n2)C1 (stereo not drawn)	inconclusive: 35.5 µM [inhibitor, partial curve, poor fit]
CN(C)c1ccc(C(=O)N2CCN(c3cc(-c4cccs4)[nH]n3)CC2)cc1	inconclusive: 39.8 µM [inhibitor, partial curve, poor fit]
CC(C)Cc1cc(C[C@@H]2C[C@H](NC(=O)NC(C)C)C2(C)C)no1	inconclusive: 50.1 µM [inhibitor, partial curve, poor fit]
Cn1cccc1CN1CCCCC12Cc1ccccc1CNC2=O (stereo not drawn)	inconclusive: 89.1 µM [inhibitor, single point]
c1ccc(CN2CCNc3cnc(-c4ccc(N5CCOCC5)cc4)cc3C2)cc1	inconclusive: 79.4 µM [inhibitor, partial curve, poor fit]
Cc1cc(Cn2cc3c4c(cccc42)[C@H](CC(C)C)N[C@H](C(=O)NCC2CC2)C3)no1	active: 89.1 µM
CC1CCN(CC2CCCNCC2)CC1 (stereo not drawn)	inactive

SMILES	Potency
CC1(C)[C@H](Cc2cc(-c3ccc(F)cc3)on2)C[C@@H]1NS(C)(=O)=O	inconclusive: 22.4 µM [inhibitor, full curve]
CCOc1cccc(CNC(=O)c2noc(-c3ccc(C)cc3)n2)c1	inconclusive: 50.1 µM [inhibitor, partial curve, poor fit]
CCN(CCNC(=O)C1CCCCC(=O)N1C)Cc1ccccc1 (stereo not drawn)	inconclusive: 79.4 µM [inhibitor, partial curve, poor fit]
COC(=O)c1ccc(CNC(=O)CC2c3cccnc3C(=O)N2c2c(Cl)cccc2Cl)cc1 (stereo not drawn)	inconclusive: 31.6 µM [inhibitor, partial curve, poor fit]
CCS(=O)(=O)N1C[C@@H](Oc2cccnc2)C[C@H]1C(=O)N1CCOCC1	inactive
CC(C)c1nnc(C2CN(C(=O)c3ccc(F)c(F)c3)CC23CCOCC3)o1 (stereo not drawn)	inactive
COc1nccnc1NC1CCN(C(=O)CCc2ccccc2)CC1	inactive
CC(C)(C)C(=O)N1CCCC2(CNc3ncccc3[S+](=O)([O-])N2)C1 (stereo not drawn)	inactive
COc1ccccc1OCCC1CCN(C(=O)Cc2c[nH]c3ccccc23)C1 (stereo not drawn)	inconclusive: 50.1 µM [inhibitor, partial curve, poor fit]
CCCS(=O)(=O)NCC1Cn2cccc2C(=O)N1C (stereo not drawn)	inconclusive: 56.2 µM [inhibitor, partial curve, poor fit]
O=C(NC1CCN(c2cc(-c3ccc(Cl)cc3)[nH]n2)C1)c1cccnc1 (stereo not drawn)	inconclusive: 50.1 µM [inhibitor, partial curve, poor fit]
O=C(NC[C@H]1OC[C@@H](N(Cc2ccccc2)Cc2ccccc2)[C@@H]1O)Nc1ccccc1	inconclusive: 56.2 µM [inhibitor, partial curve, poor fit]
COc1cccc(CNC(=O)c2cn3cc(-c4cccnc4)sc3n2)c1	inconclusive: 56.2 µM [inhibitor, partial curve, poor fit]
CCc1cc(N2CCC3(CCCN(C)C3=O)C2)nc(N2CCCC2)n1 (stereo not drawn)	inconclusive: 39.8 µM [inhibitor, partial curve, poor fit]
O=C(NC1CCCCCC1)c1cn2cc(-c3ccc(F)cc3)sc2n1	inconclusive: 56.2 µM [inhibitor, partial curve, poor fit]
CC1CCC2(CC1)OCC(C(=O)NCC1CCCO1)N2C(=O)c1ccc(Cl)c(Cl)c1 (stereo not drawn)	inconclusive: 50.1 µM [inhibitor, partial curve, poor fit]
O=C1NCc2ccccc2CC12CCCN2Cc1ccc(Br)cc1 (stereo not drawn)	inconclusive: 50.1 µM [inhibitor, partial curve, poor fit]
CCOc1ccccc1NC(=O)N1CCC([C@@H]2[C@H](OC)C(=O)N2C(C)C)CC1	inactive
Cn1nc(C(=O)N2CCC3(CC2)N=C(c2ccccc2)NO3)c2ccccc21	inactive
CCN1CCN(CCNC(=O)c2cc(-c3ccc(C)cc3)cn2C)CC1	inconclusive: 70.8 µM [inhibitor, single point]
COc1cccc(-c2cccc(CN3CCCC3C(=O)NCc3cccc(F)c3)c2)c1 (stereo not drawn)	active: 35.5 µM
Cc1noc(C)c1CC(=O)N1CCC(c2n[nH]c(=O)n2Cc2ccc(F)cc2)CC1	inactive
